Data: PMC3325213 (PLoS Pathogens, 2012)
These are yes or no findings as the source states them, for the method shown. Some binding calls cover weakened binding; strength is not graded here.

Key:
Test in all cases: two-hybrid
[1] = biological target: Tsi2 E73K–V–Zif (Pseudomonas aeruginosa (PAO1)) (UniProt Q9I0D9)
[2] = biological target: Tsi2 D49K–V–Zif (Pseudomonas aeruginosa (PAO1)) (UniProt Q9I0D9)
[3] = biological target: Tsi2 Asp45Asn–V–Zif (Pseudomonas aeruginosa (PAO1)) (UniProt Q9I0D9)
[4] = biological target: Tsi2 D69K–V–Zif (Pseudomonas aeruginosa (PAO1)) (UniProt Q9I0D9)
[5] = biological target: Tsi2 E36K–V–Zif (Pseudomonas aeruginosa (PAO1)) (UniProt Q9I0D9)
[6] = biological target: Tsi2 D30K–V–Zif (Pseudomonas aeruginosa (PAO1)) (UniProt Q9I0D9)
[7] = biological target: Tsi2 E56K–V–Zif (Pseudomonas aeruginosa (PAO1)) (UniProt Q9I0D9)
[8] = biological target: Tsi2 Glu38Gln–V–Zif (Pseudomonas aeruginosa (PAO1)) (UniProt Q9I0D9)
[9] = biological target: Tsi2 D23K–V–Zif (Pseudomonas aeruginosa (PAO1)) (UniProt Q9I0D9)
[10] = biological target: Tsi2 E74K–V–Zif (Pseudomonas aeruginosa (PAO1)) (UniProt Q9I0D9)
[11] = biological target: Tsi2–V–Zif (type VI secretion immunity 2 fused C-terminally to the VSV-G epitope followed by Zif) (Pseudomonas aeruginosa (PAO1)) (UniProt Q9I0D9)
[12] = biological target: Tsi2^A47Q–V–Zif (Pseudomonas aeruginosa (PAO1)) (UniProt Q9I0D9)
[13] = biological target: Tsi2^D45K–V–Zif (Pseudomonas aeruginosa (PAO1)) (UniProt Q9I0D9)
[14] = biological target: Tsi2^E38K–V–Zif (Pseudomonas aeruginosa (PAO1)) (UniProt Q9I0D9)
[15] = biological target: Tsi2 Glu21 alanine substitution mutant–V–Zif (Pseudomonas aeruginosa (PAO1)) (UniProt Q9I0D9)
[16] = biological target: Tsi2 Arg18 alanine substitution mutant–V–Zif (Pseudomonas aeruginosa (PAO1)) (UniProt Q9I0D9)
[17] = biological target: Tsi2 Val10 glutamine substitution mutant–V–Zif (Pseudomonas aeruginosa (PAO1)) (UniProt Q9I0D9)
[18] = biological target: Tsi2 Cys14 glutamine substitution mutant–V–Zif (Pseudomonas aeruginosa (PAO1)) (UniProt Q9I0D9)

Row | Substance | binding [1] | binding [2] | binding [3] | binding [4] | binding [5] | binding [6] | binding [7] | binding [8] | binding [9] | binding [10] | binding [11] | binding [12] | binding [13] | binding [14] | binding [15] | binding [16] | binding [17] | binding [18]
1 | Tse2NT–ω (non-toxic Tse2 T79A S80A as N-terminal fusion to the ω subunit of E. coli RNA polymerase) (from UniProt Q9I0E0 1-158) | binds | binds | binds | binds | binds | binds | binds | binds | binds | binds | binds | binds | no binding | no binding | – | – | – | –
2 | Tsi2–ω (Tsi2 as N-terminal fusion to the ω subunit of E. coli RNA polymerase) (from UniProt Q9I0D9 1-77) | binds | binds | – | binds | binds | binds | binds | – | binds | binds | binds | – | binds | binds | binds | binds | binds | binds
